Results reported in the supplement of paper PMC7826260.
This is one part of the list. One pool of 16,384 single-stranded DNAs met each Rep nickase domain in vitro for 1 h at 37 °C with 3 µM enzyme; only the middle of the 90-letter strands is printed. Numbers give uncut DNA relative to the enzyme-free pool, as log2; more negative means more cut, near 0 not cut, and no call is made. Counts are relative to all reads, so uncut sequences can rise above 0 when many others are cut.

How the values were obtained:
Assay in all cases: uncleaved DNA left, log2 of reads against the no-enzyme library (log2 ratio); higher = less cleavage (more negative = more Rep cleavage of the k-mer); sequences stand for … in CTCGTCCG…ACCGGAGA
[1] = tested on: T1, Rep nickase domain of Muscovy duck circovirus
T1 sequence (Rep 1-111, printed without the tag): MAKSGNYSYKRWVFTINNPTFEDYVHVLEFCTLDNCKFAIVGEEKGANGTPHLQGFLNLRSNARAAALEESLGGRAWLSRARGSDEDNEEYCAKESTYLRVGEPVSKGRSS
Procedure: (§1)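 A pool of 90-nt single-stranded DNAs with seven random bases just before the constant AC of the nick site (name = the seven bases) was cut by 3 µM recombinant His6-SUMO-tagged Rep nickase domain (300 nM DNA, 50 mM HEPES pH 8.0, 50 mM NaCl, 1 mM MnCl2, 1 h, 37 °C, three replicates). Uncut DNA was amplified and sequenced.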

[2] = tested on: T2, Rep nickase domain of banana bunchy top virus
T2 sequence (Rep 1-94, printed without the tag): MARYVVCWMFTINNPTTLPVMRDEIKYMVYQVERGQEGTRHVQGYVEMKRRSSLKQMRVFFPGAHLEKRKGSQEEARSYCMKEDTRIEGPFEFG
Procedure: as §1

[3] = tested on: T3, Rep nickase domain of cabbage leaf curl virus
T3 sequence (Rep 1-116, printed without the tag): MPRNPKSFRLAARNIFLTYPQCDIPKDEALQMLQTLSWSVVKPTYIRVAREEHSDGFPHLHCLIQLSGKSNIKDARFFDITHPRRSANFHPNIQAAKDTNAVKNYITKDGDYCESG
Procedure: as §1

[4] = tested on: T4, Rep nickase domain of chickpea chlorotic dwarf virus
T4 sequence (Rep 1-124, printed without the tag): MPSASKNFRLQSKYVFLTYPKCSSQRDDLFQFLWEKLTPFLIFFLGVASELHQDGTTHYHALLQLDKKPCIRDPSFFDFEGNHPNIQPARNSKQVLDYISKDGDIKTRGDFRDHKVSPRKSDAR
Procedure: as §1

[5] = tested on: T5, Rep nickase domain of faba bean necrotic yellows virus
T5 sequence (Rep 1-98, printed without the tag): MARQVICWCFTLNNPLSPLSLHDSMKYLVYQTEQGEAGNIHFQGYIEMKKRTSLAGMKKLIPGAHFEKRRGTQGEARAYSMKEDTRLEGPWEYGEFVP
Procedure: as §1

[6] = tested on: T6, Rep nickase domain of maize striate mosaic virus
T6 sequence (Rep 1-117, printed without the tag): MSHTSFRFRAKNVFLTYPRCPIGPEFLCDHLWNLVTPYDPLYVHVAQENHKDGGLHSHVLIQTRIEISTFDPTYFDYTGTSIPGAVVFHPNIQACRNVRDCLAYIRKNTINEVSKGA
Procedure: as §1

[7] = tested on: T7, Rep nickase domain of porcine circovirus 2
T7 sequence (Rep 2-116, printed without the tag): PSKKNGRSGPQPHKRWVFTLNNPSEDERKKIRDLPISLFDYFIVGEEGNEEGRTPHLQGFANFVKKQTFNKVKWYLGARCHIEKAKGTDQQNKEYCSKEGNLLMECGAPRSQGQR
Procedure: as §1

[8] = tested on: T8, Rep nickase domain of tomato golden mosaic virus
T8 sequence (Rep 1-124, printed without the tag): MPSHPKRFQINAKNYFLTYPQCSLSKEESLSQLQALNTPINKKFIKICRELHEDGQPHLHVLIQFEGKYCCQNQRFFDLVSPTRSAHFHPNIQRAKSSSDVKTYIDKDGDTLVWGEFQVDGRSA
Procedure: as §1

[9] = tested on: T9, Rep nickase domain of tomato yellow leaf curl virus
T9 sequence (Rep 1-136, printed without the tag): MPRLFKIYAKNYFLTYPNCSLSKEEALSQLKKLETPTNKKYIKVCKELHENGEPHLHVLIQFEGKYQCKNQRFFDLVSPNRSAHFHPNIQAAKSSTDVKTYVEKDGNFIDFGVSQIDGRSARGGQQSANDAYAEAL
Procedure: as §1

[10] = tested on: T10, Rep nickase domain of wheat dwarf virus
T10 sequence (Rep 1-137, printed without the tag): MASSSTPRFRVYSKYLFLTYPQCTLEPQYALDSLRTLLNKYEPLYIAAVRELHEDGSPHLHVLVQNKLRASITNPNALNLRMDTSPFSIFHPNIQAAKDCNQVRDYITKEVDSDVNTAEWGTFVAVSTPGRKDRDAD
Procedure: as §1

Row | Sequence | uncleaved DNA left (log2) [1] | uncleaved DNA left (log2) [2] | uncleaved DNA left (log2) [3] | uncleaved DNA left (log2) [4] | uncleaved DNA left (log2) [5] | uncleaved DNA left (log2) [6] | uncleaved DNA left (log2) [7] | uncleaved DNA left (log2) [8] | uncleaved DNA left (log2) [9] | uncleaved DNA left (log2) [10]
1 | AATAGGG | -0.055 | -0.0514 | -0.448 | -0.289 | 0.0275 | -0.958 | 0.035 | -0.00461 | 0.0179 | -0.00406
2 | GATACTT | -0.051 | -1.37 | 0.161 | -0.795 | 0.0971 | 0.89 | -1.46 | 0.0286 | 0.104 | 0.201
3 | ATTTGAT | -0.274 | -0.344 | 0.157 | 0.727 | -0.0237 | 0.935 | -1.54 | 0.0735 | -0.0635 | -0.0269
4 | TCACAAC | -0.0228 | 0.049 | -0.0541 | -1.74 | 0.138 | -0.543 | 0.0901 | -0.0913 | -0.00953 | -0.108
5 | AGTCCTA | 0.031 | 0.00915 | 0.263 | 0.0919 | -0.0764 | 0.433 | -1.01 | 0.0514 | -0.0136 | 0.107
6 | GTGCATC | -0.101 | 0.13 | 0.408 | 0.894 | 0.0215 | 1.72 | 0.0998 | 0.0692 | 0.104 | 0.104
7 | TTGAGGG | 0.157 | 0.0155 | 0.186 | 0.37 | 0.0357 | -0.172 | 0.205 | 0.0837 | 0.0189 | 0.067
8 | CATACCA | -0.0286 | 0.00717 | -0.0942 | -2.08 | 0.0105 | -0.303 | -0.446 | -0.0611 | 0.0491 | 0.054
9 | GCCGGTA | 0.141 | -0.0301 | 0.28 | 0.498 | 0.00272 | 0.463 | 0.142 | 0.00196 | -0.068 | 0.0573
10 | TCAGCGG | 0.0093 | 0.0382 | 0.308 | 0.849 | 0.078 | 0.807 | 0.11 | 0.152 | -0.13 | -0.00768
11 | CTTCTGC | 0.075 | -0.0152 | -0.446 | -0.661 | 0.0689 | -0.93 | 0.095 | -0.0616 | 0.144 | 0.0713
12 | GGAGATT | 0.00606 | 0.0872 | 0.465 | 1.33 | 0.0707 | 1.55 | -0.0307 | -0.0162 | 0.112 | 0.0905
13 | GGTGTGT | 0.0522 | -0.105 | 0.352 | 0.846 | -0.0442 | 1.09 | -0.00388 | -0.143 | -0.108 | -0.0781
14 | ATAATCC | 0.0513 | -0.00873 | 0.326 | 0.0458 | -0.0309 | -0.5 | 0.0842 | 0.0505 | -0.0225 | 0.105
15 | AGAATCA | 0.00826 | 0.0663 | 0.43 | 0.525 | 0.0075 | 0.813 | 0.0578 | 0.0616 | 0.0759 | 0.266
